From patent publication US20260225997A1, “IONIZABLE AMINE LIPIDS” (Intellia Therapeutics, Inc., priority 2018, published 2026)
For at least one compound, name, drawing or mass did not settle the structure. One block for each compound: values may come before it.

What was measured:
[1] = LNP average particle size and polydispersity by dynamic light scattering (Malvern Zetasizer); format: physicochemical
Text: The LNPs have a size of about 1 to about 1,000 nm, about 10 to about 500 nm, about 20 to about 500 nm, in a sub-embodiment about 50 to about 400 nm, in a sub-embodiment about 50 to about 300 nm, in a sub-embodiment about 50 to about 200 nm, and in a sub-embodiment about 50 to about 150 nm, and in another sub-embodiment about 60 to about 120 nm. Preferably, the LNPs have a size from about 60 nm to about 100 nm. The average sizes (diameters) of the fully formed LNP, may be measured by dynamic light scattering on a Malvern Zetasizer. The LNP sample is diluted in phosphate buffered saline (PBS) so that the count rate is approximately 200-400 kcps. The data is presented as a weighted average of the intensity measure.
The LNPs disclosed herein have a size (e.g. Z-average diameter) of about 1 to about 250 nm. In some embodiments, the LNPs have a size of about 10 to about 200 nm. In further embodiments, the LNPs have a size of about 20 to about 150 nm. In some embodiments, the LNPs have a size of about 50 to about 150 nm. In some embodiments, the LNPs have a size of about 50 to about 100 nm. In some embodiments, the LNPs have a size of about 50 to about 120 nm. In some embodiments, the LNPs have a size of about 60 to about 100 nm. In some embodiments, the LNPs have a size of about 75 to about 150 nm. In some embodiments, the LNPs have a size of about 75 to about 120 nm. In some embodiments, the LNPs have a size of about 75 to about 100 nm. Unless indicated otherwise, all sizes referred to herein are the average sizes (diameters) of the fully formed nanoparticles, as measured by dynamic light scattering on a Malvern Zetasizer. The nanoparticle sample is diluted in phosphate buffered saline (PBS) so that the count rate is approximately 200-400 kcps. The data is presented as a weighted-average of the intensity measure (Z-average diameter).
Dynamic Light Scattering (“DLS”) is used to characterize the polydispersity index (“pdi”) and size of the LNPs of the present disclosure. DLS measures the scattering of light that results from subjecting a sample to a light source. PDI, as determined from DLS measurements, represents the distribution of particle size (around the mean particle size) in a population, with a perfectly uniform population having a PDI of zero.
LNP compositions are analyzed for average particle size, polydispersity index (pdi), total RNA content, encapsulation efficiency of RNA, and zeta potential. LNP compositions may be further characterized by lipid analysis, AF4-MALS, NTA, and/or cryo-EM. Average particle size and polydispersity are measured by dynamic light scattering (DLS) using a Malvern Zetasizer DLS instrument. LNP samples were diluted with PBS buffer prior to being measured by DLS. Z-average diameter which is an intensity-based measurement of average particle size was reported along with number average diameter and pdi. A Malvern Zetasizer instrument is also used to measure the zeta potential of the LNP. Samples are diluted 1:17 (50 μL into 800 μL) in 0.1×PBS, pH 7.4 prior to measurement.

[2] = RNA encapsulation efficiency of LNP (Ribogreen fluorescence assay); format: physicochemical
Experimental: A fluorescence-based assay (Ribogreen®, ThermoFisher Scientific) is used to determine total RNA concentration and free RNA. Encapsulation efficiency is calculated as (Total RNA−Free RNA)/Total RNA. LNP samples are diluted appropriately with 1× TE buffer containing 0.2% Triton-X 100 to determine total RNA or 1× TE buffer to determine free RNA. Standard curves are prepared by utilizing the starting RNA solution used to make the compositions and diluted in 1× TE buffer+/−0.2% Triton-X 100. Diluted RiboGreen® dye (according to the manufacturer's instructions) is then added to each of the standards and samples and allowed to incubate for approximately 10 minutes at room temperature, in the absence of light. A SpectraMax M5 Microplate Reader (Molecular Devices) is used to read the samples with excitation, auto cutoff and emission wavelengths set to 488 nm, 515 nm, and 525 nm respectively. Total RNA and free RNA are determined from the appropriate standard curves.
Encapsulation efficiency is calculated as (Total RNA−Free RNA)/Total RNA. The same procedure may be used for determining the encapsulation efficiency of a DNA-based cargo component. For single-strand DNA Oligreen Dye may be used, and for double-strand DNA, Picogreen Dye.

[3] = Table 3, Example 52: LNP, Cas9 mRNA + sgRNA (G650) 1:1 w/w, N:P 6.0
[4] = Table 3, Example 52: LNP, Cas9 mRNA + sgRNA (G650) 1:1 w/w, N:P 6.0, Compound 19 50/9/38/3, others 50/10/38.5/1.5
[5] = Table 12, Example 56: LNP, G282
[6] = Table 10, Example 55: LNP, G282 1:1
[7] = Table 10, Example 55: LNP, G282 (TTR) 1:1 w/w, N:P 6.0
[8] = Table 20, Example 61: LNP, G282 1:1
[9] = Table 20, Example 61: LNP, G282 (TTR) 1:1 w/w, N:P 6.0
[10] = Table 16, Example 59: LNP, G282 1:1
[11] = Table 22, Example 62: LNP, G282 1:2
[12] = Table 26, Example 64: LNP, G282 1:1
[13] = Table 22, Example 62: LNP, G282 (TTR), sgRNA:Cas9 mRNA 1:2 w/w, N:P 6.0
[14] = Table 26, Example 64: LNP, G282 (TTR) 1:1 w/w, N:P 6.0
[15] = Table 14, Example 58: LNP, G282 1:1
[16] = Table 14, Example 58: LNP, G282 (TTR) 1:1 w/w, N:P 6.0
[17] = Table 18, Example 60: LNP, G502 1:2
[18] = Table 24, Example 63: LNP, G282 1:1
[19] = Table 24, Example 63: LNP, G282 (TTR) 1:1 w/w, NP 6.0

- Num Ave Size (nm) [1, 3]: 59.46 nm
- PDI [1, 3]: 0.068
- Z-Ave Size (nm) [1, 3]: 79.89 nm
- Encapsulation (%) [2, 4]: 98%
Structure (SMILES): CCCCCCCCCOC(=O)CCCCCCCN(CCO)CCCCCCCC(OCCCCCCCCC)OCCCCCCCCC [Compound 2]

- Num Ave Size (nm) [1, 6]: 55.7 nm
- PDI [1, 6]: 0.065
- Z-Ave Size (nm) [1, 6]: 74.45 nm
- Encapsulation (%) [2, 7]: 92%
Structure (SMILES): CCCCCCCCCOC(=O)CCCCCCCN(CCO)CCCCCCCC(OCCCCCCC)OCCCCCCC [Compound 7, nonyl 8-((8,8-bis(heptyloxy)octyl)(2-hydroxyethyl)amino)octanoate]

- Num Ave Size (nm) [1, 6]: 60.2 nm
- PDI [1, 6]: 0.085
- Z-Ave Size (nm) [1, 6]: 87.86 nm
- Encapsulation (%) [2, 7]: 84%
Structure (SMILES): CCCCCCCCCOC(=O)CCCCCCCN(CCO)CCCCCCCC(OCCCCCC)OCCCCCC [Compound 8, nonyl 8-((8,8-bis(hexyloxy)octyl)(2-hydroxyethyl)amino)octanoate]

- Num Ave Size (nm) [1, 8]: 60.79 nm
- PDI [1, 8]: 0.021
- Z-Ave Size (nm) [1, 8]: 75.32 nm
- Encapsulation (%) [2, 9]: 97%
Structure (SMILES): CCCCCCCCCOC(=O)CCCCCCCN(CCO)CCCCCCCCC(OCCCCCCCC)OCCCCCCCC [Compound 9, nonyl 8-((9,9-bis(octyloxy)nonyl)(2-hydroxyethyl)amino octanoate]

- Num Ave Size (nm) [1, 15]: 62.44 nm
- PDI [1, 15]: 0.014
- Z-Ave Size (nm) [1, 15]: 75.44 nm
- Encapsulation (%) [2, 16]: 98%
Structure (SMILES): CCCCCCCCCCOC(=O)CCCCCCN(CCO)CCCCCCCC(OCCCCCCCC)OCCCCCCCC [Compound 12, decyl 7-((8,8-bis(octyloxy)octyl)(2-hydroxyethyl)amino)heptanoate]

- Num Ave Size (nm) [1, 15]: 65.34 nm
- PDI [1, 15]: 0.039
- Z-Ave Size (nm) [1, 15]: 82.2 nm
- Encapsulation (%) [2, 16]: 98%
Structure (SMILES): CCCCCCCCCCCCOC(=O)CCCCN(CCO)CCCCCCCC(OCCCCCCCC)OCCCCCCCC [Compound 14, dodecyl 5-((8,8-bis(octyloxy)octyl)(2-hydroxyethyl)amino)pentanoate]

- Num Ave Size (nm) [1, 15]: 57.97 nm
- PDI [1, 15]: 0.092
- Z-Ave Size (nm) [1, 15]: 82.93 nm
- Num Ave Size (nm) [1, 11]: 69.95 nm
- PDI [1, 11]: 0.051
- Z-Ave Size (nm) [1, 11]: 90.22 nm
- Encapsulation (%) [2, 16]: 88%
- Encapsulation (%) [2, 13]: 89%
Structure (SMILES): CCCCCCCCOC(CCCCCCCN(CCO)CCCCCCCC(=O)OCCCCCCC)OCCCCCCCC [Compound 15, heptyl 8-((8,8-bis(octyloxy)octyl)(2-hydroxyethyl)amino)octanoate]

- Num Ave Size (nm) [1, 18]: 54 nm
- PDI [1, 18]: 0.13
- Z-Ave Size (nm) [1, 18]: 80 nm
- Encapsulation (%) [2, 19]: 94%
Structure (SMILES): CCCCCCCCOC(CCCCCCCN(CCO)CCCCCCCC(=O)OC(C)CCCCCC)OCCCCCCCC (stereo not shown) [Compound 27, octan-2-yl 8-((8,8-bis(octyloxy)octyl)(2-hydroxyethyl)amino)octanoate]

Second part, the compound before the results:

Structure (SMILES): CCCCCCCCCOC(=O)CCCCCCCN(CCO)CCCCCCCCCC(OCCCCCCCC)OCCCCCCCC [Compound 5]
- Num Ave Size (nm) [1, 3]: 59.69 nm
- PDI [1, 3]: 0.099
- Z-Ave Size (nm) [1, 3]: 83.93 nm
- Num Ave Size (nm) [1, 5]: 48.59 nm
- PDI [1, 5]: 0.273
- Z-Ave Size (nm) [1, 5]: 108.1 nm
- Encapsulation (%) [2, 4]: 98%
- Encapsulation (%) ([2]; Table 12, Example 56: LNP, G282 (TTR), ratio 6.0): 98%

Structure (SMILES): CCCCCCCCCOC(=O)CCCCCCCN(CCO)CCCCCCCCCC(OCCCCCCCCC)OCCCCCCCCC [Compound 6, 8-[10,10-di(nonoxy)decyl-(2-hydroxyethyl)amino]octanoate]
- Num Ave Size (nm) [1, 3]: 58.17 nm
- PDI [1, 3]: 0.075
- Z-Ave Size (nm) [1, 3]: 78.59 nm
- Encapsulation (%) [2, 4]: 99%

Structure (SMILES): CCCCCCCCCOC(=O)CCCCCCCN(CCO)CCCCCCC(OCCCCCCCC)OCCCCCCCC [Compound 10, nonyl 8-((7,7-bis(octyloxy)heptyl)(2-hydroxyethyl)amino)octanoate]
- Num Ave Size (nm) [1, 6]: 55.72 nm
- PDI [1, 6]: 0.049
- Z-Ave Size (nm) [1, 6]: 72.36 nm
- Num Ave Size (nm) [1, 10]: 57.14 nm
- PDI [1, 10]: 0.044
- Z-Ave Size (nm) [1, 10]: 73.31 nm
- Num Ave Size (nm) [1, 8]: 57.86 nm
- PDI [1, 8]: 0.059
- Z-Ave Size (nm) [1, 8]: 76.35 nm
- Num Ave Size (nm) [1, 11]: 59.35 nm
- PDI [1, 11]: 0.072
- Z-Ave Size (nm) [1, 11]: 79.49 nm
- Num Ave Size (nm) [1, 12]: 58 nm
- PDI [1, 12]: 0.05
- Z-Ave Size (nm) [1, 12]: 77 nm
- Encapsulation (%) [2, 7]: 95%
- Encapsulation (%) ([2]; Table 16, Example 59: LNP, G282 (TTR) 1:1 w/w, N:P 6.0): 98%
- Encapsulation (%) [2, 9]: 94%
- Encapsulation (%) [2, 13]: 92%
- Encapsulation (%) [2, 14]: 92%

Structure (SMILES): CCCCCCCCCOC(=O)CCCCCCCN(CCO)CCCCCCCC(OC(C)CCCCCC)OC(C)CCCCCC (stereo not shown) [Compound 25, nonyl 8-[8,8-bis(1-methylheptoxy)octyl-(2-hydroxyethyl)amino]octanoate]
- Num Ave Size (nm) [1, 17]: 50.74 nm
- PDI [1, 17]: 0.065
- Z-Ave Size (nm) [1, 17]: 66.83 nm
- Encapsulation (%) ([2]; Table 18, Example 60: LNP, G502 (TTR), sgRNA:Cas9 mRNA 1:2 w/w, N:P 6.0): 92%

Structure (SMILES): CCCCCCCCOC(CCCCCCCN(CCO)CCCCCCCC(=O)OCCCCC)OCCCCCCCC [Compound 29, pentyl 8-((8,8-bis(octyloxy)octyl)(2-hydroxyethyl)amino)octanoate]
- Num Ave Size (nm) [1, 18]: 68 nm
- PDI [1, 18]: 0.17
- Z-Ave Size (nm) [1, 18]: 118 nm
- Encapsulation (%) [2, 19]: 91%

Structure (SMILES): CCCCCCCCOC(CCCCCCCN(CCO)CCCCCCCC(=O)OC(CC)CCCC)OCCCCCCCC (stereo not shown) [Compound 30, heptan-3-yl 8-((8,8-bis(octyloxy)octyl)(2-hydroxyethyl)amino)octanoate]
- Num Ave Size (nm) [1, 18]: 61 nm
- PDI [1, 18]: 0.16
- Z-Ave Size (nm) [1, 18]: 108 nm
- Encapsulation (%) [2, 19]: 93%

Structure (SMILES): CCCCCCCCCOC(=O)CCCCCCCN(CCCCCCC(OCCCCCCCC)OCCCCCCCC)CCNC(C)=O [Compound 41, nonyl 8-((2-acetamidoethyl)(7,7-bis(octyloxy)heptyl)amino)octanoate]
- Num Ave Size (nm) [1, 12]: 70 nm
- PDI [1, 12]: 0.05
- Z-Ave Size (nm) [1, 12]: 92 nm
- Encapsulation (%) [2, 14]: 95%

Structure (SMILES): CCCCCCCCCOC(=O)CCCCCCCN(CCCCCCC(OCCCCCCCC)OCCCCCCCC)CCCNC(C)=O [Compound 42, nonyl 8-((3-acetamidopropyl)(7,7-bis(octyloxy)heptyl)amino)octanoate]
- Num Ave Size (nm) [1, 12]: 99 nm
- PDI [1, 12]: 0.05
- Z-Ave Size (nm) [1, 12]: 122 nm
- Encapsulation (%) [2, 14]: 97%
